Hit rate of the full screen: of about 39,000 compounds, about 220 (0.56%) showed activity. Some of the results follow.
The molecules below were run on Escherichia coli K-12 BW25113 (assay: relative growth (OD600 normalised to plate interquartile mean) (fraction); higher = less growth inhibition, active = 0.2 or less). Details: 50 µM; LB; incubation time: overnight (16-24 h).
With C[C@@H]1CN([C@@H](C)CO)C(=O)c2cc(NC(=O)C3CCCCC3)ccc2O[C@@H](C)CCCCO[C@H]1CN(C)C(=O)NC1CCCCC1 the relative growth was inactive: 0.983. With CC(C)NC(=O)Nc1ccc2c(c1)C(=O)N([C@@H](C)CO)C[C@@H](C)[C@H](CN(C)Cc1ccccc1)OCCCC[C@@H](C)O2 the relative growth was inactive: 1. With CCS(=O)(=O)NCC[C@@H]1CC[C@@H](NC(=O)Cc2ccccn2)[C@H](CO)O1 the relative growth was inactive: 0.94. With Cc1noc(C)c1NC(=O)N(C)C[C@@H]1Oc2ccc(NC(=O)c3ccncc3)cc2C(=O)N([C@H](C)CO)C[C@H]1C the relative growth was inactive: 0.964. NNC(=S)NCc1cccs1 was tested, and the relative growth was inactive: 0.947. In the case of C[C@@H]1CN([C@H](C)CO)C(=O)c2cc(NC(=O)Nc3ccccc3)ccc2O[C@@H](C)CCCCO[C@H]1CN(C)Cc1ccc(C(=O)O)cc1, the relative growth is reported as inactive: 1.01. With COc1ccc(NC(=O)Nc2cccc3c2O[C@H](CN(C)Cc2ccc(Oc4ccccc4)cc2)[C@@H](C)CN([C@@H](C)CO)C3=O)cc1 the relative growth was inactive: 1. In the case of C[C@@H]1CCCCO[C@@H](CN(C)Cc2ccc(Cl)c(Cl)c2)[C@H](C)CN([C@@H](C)CO)C(=O)c2cc(NC(=O)Nc3cccc4ccccc34)ccc2O1, the relative growth is reported as inactive: 1.03. In the case of Cc1ccc(S(=O)(=O)N(C)C[C@H]2Oc3c(NS(=O)(=O)c4cn(C)cn4)cccc3C(=O)N([C@@H](C)CO)C[C@H]2C)cc1, the relative growth is reported as inactive: 0.982. CN1CCN(C(=O)C[C@H]2CC[C@@H]3[C@H](COC[C@@H](O)CN3Cc3ccc(Oc4ccccc4)cc3)O2)CC1 was tested, and the relative growth was inactive: 0.991. In the case of C[C@H]1CN([C@@H](C)CO)C(=O)c2cccc(NC(=O)c3ccc(-c4nccs4)cc3)c2O[C@H]1CN(C)C(=O)Nc1ccc(F)cc1, the relative growth is reported as inactive: 0.984. In the case of CCC(C)(C)C(=O)OC1CC(C)C=C2C=CC(C)C(CCC3CC(O)CC(=O)O3)C21 (stereo not drawn), the relative growth is reported as inactive: 1.15. For C[C@@H]1CN([C@@H](C)CO)C(=O)c2cc(NS(=O)(=O)c3cccs3)ccc2O[C@H]1CN(C)Cc1ccc(Cl)c(Cl)c1, the relative growth was inactive: 1.02. For C[C@H](CO)N1C[C@H](C)[C@@H](CN(C)S(=O)(=O)c2ccc(F)cc2)Oc2ccc(NC(=O)CCN3CCOCC3)cc2C1=O, the relative growth was inactive: 1.01. In the case of COc1ccc(S(=O)(=O)N[C@H]2C=C[C@H](CC(=O)NCCc3ccncc3)O[C@@H]2CO)cc1, the relative growth is reported as inactive: 0.982. C[C@@H]1CN([C@H](C)CO)C(=O)c2cccc(NC(=O)Nc3ccc(F)cc3)c2O[C@@H]1CN(C)C(=O)Nc1ccc(C(F)(F)F)cc1 was tested, and the relative growth was inactive: 0.978. For C[C@H]1CN([C@@H](C)CO)C(=O)c2cccc(NC(=O)c3cnccn3)c2O[C@H]1CN(C)C(=O)Nc1ccccc1, the relative growth was inactive: 1.01. With C[C@@H]1CN([C@@H](C)CO)C(=O)c2cc(NC(=O)NC3CCCCC3)ccc2O[C@@H](C)CCCCO[C@@H]1CN(C)C(=O)c1ccncc1 the relative growth was inactive: 0.998. In the case of C[C@@H]1CCCCO[C@H](CN(C)C(=O)CCC(F)(F)F)[C@@H](C)CN([C@@H](C)CO)C(=O)c2cc(NS(=O)(=O)c3ccc(F)cc3)ccc2O1, the relative growth is reported as inactive: 1.01. For COCC#Cc1ccc2c(c1)O[C@H](CN(C)S(=O)(=O)c1ccc(C)cc1)[C@H](C)CN([C@H](C)CO)S2(=O)=O, the relative growth was inactive: 1.02. In the case of NC(=O)NCCC[C@H](N)C(=O)O, the relative growth is reported as inactive: 0.983. For C[C@@H]1CCCCO[C@@H](CN(C)Cc2ccncc2)[C@H](C)CN([C@H](C)CO)C(=O)c2cc(NS(=O)(=O)c3ccc(Cl)cc3)ccc2O1, the relative growth was inactive: 0.993. For C[C@H]1CN([C@@H](C)CO)C(=O)c2cccc(NS(=O)(=O)c3cn(C)cn3)c2O[C@H]1CN(C)S(=O)(=O)c1ccc(Cl)cc1, the relative growth was inactive: 0.984. In the case of COc1ccc(S(=O)(=O)N(C)C[C@@H]2Oc3ccc(NC(=O)Nc4c(C)noc4C)cc3CC(=O)N([C@@H](C)CO)C[C@H]2C)cc1, the relative growth is reported as inactive: 1. With C[C@@H]1CN([C@H](C)CO)C(=O)c2cccc(NC(=O)Nc3ccc4c(c3)OCO4)c2O[C@@H]1CN(C)Cc1ccc(C(F)(F)F)cc1 the relative growth was inactive: 0.964. For C[C@@H]1CN([C@H](C)CO)C(=O)c2cc(NC(=O)Cc3ccccc3)ccc2O[C@@H](C)CCCCO[C@H]1CN(C)Cc1ccccc1, the relative growth was inactive: 1.01. C[C@H]1CN([C@@H](C)CO)C(=O)c2cc(C#CC3(O)CCCC3)cnc2O[C@H]1CN(C)S(C)(=O)=O was tested, and the relative growth was inactive: 1.02. Cc1ccc(S(=O)(=O)N(C)C[C@@H]2Oc3ccc(NC(=O)Nc4ccc(C(F)(F)F)cc4)cc3CC(=O)N([C@@H](C)CO)C[C@H]2C)cc1 was tested, and the relative growth was inactive: 1.06. In the case of C[C@@H]1CN([C@H](C)CO)C(=O)Cc2cc(NC(=O)Nc3ccc(F)cc3)ccc2O[C@H]1CN(C)Cc1ccc(-c2ccccc2)cc1, the relative growth is reported as inactive: 1.02. In the case of C[C@H]1CCCCO[C@H](CN(C)C(=O)CCC(F)(F)F)[C@@H](C)CN([C@@H](C)CO)C(=O)c2cc(NC(=O)Cc3ccccc3)ccc2O1, the relative growth is reported as inactive: 0.989. COc1ccc(S(=O)(=O)N(C)C[C@H]2OCCCC[C@@H](C)Oc3ccc(NS(=O)(=O)c4cn(C)cn4)cc3C(=O)N([C@@H](C)CO)C[C@@H]2C)cc1 was tested, and the relative growth was inactive: 0.977. For Cc1noc(C)c1S(=O)(=O)Nc1ccc2c(c1)C(=O)N([C@H](C)CO)C[C@@H](C)[C@H](CN(C)Cc1ccc(Cl)c(Cl)c1)OCCCC[C@@H](C)O2, the relative growth was inactive: 0.998. C[C@@H]1CN([C@H](C)CO)C(=O)c2cc(NC(=O)CCN3CCOCC3)ccc2O[C@@H]1CN(C)S(=O)(=O)c1cccs1 was tested, and the relative growth was inactive: 1.01. With C[C@H]1CN([C@@H](C)CO)C(=O)c2cc(NC(=O)Nc3ccc(C(F)(F)F)cc3)ccc2O[C@@H]1CN(C)Cc1ccc2c(c1)OCO2 the relative growth was inactive: 0.932. For COc1ccc(C#Cc2ccc3c(c2)[C@]2(C(=O)N3)[C@H](C(=O)O)[C@H]3C(=O)O[C@H](c4ccccc4)[C@H](c4ccccc4)N3[C@@H]2c2ccccc2OCCO)cc1, the relative growth was inactive: 0.949. With COc1ccc2c3c([nH]c2c1)[C@@H](CO)N(C[C@]13CCN(CC1)S(=O)(=O)c1ccccc1)C(=O)c1cnccn1 the relative growth was inactive: 0.978. For NCCS, the relative growth was inactive: 0.974. In the case of COCCOC(=O)C1=C(C)NC(C)=C(C(=O)OC(C)C)C1c1cccc([N+](=O)[O-])c1 (stereo not drawn), the relative growth is reported as inactive: 1.05. In the case of NC(=O)N1CCC(=O)Nc2ccccc21, the relative growth is reported as inactive: 1.02. With Cc1ccc(S[C@]2(C(=O)O)CC(=O)N(Cc3cc(C(F)(F)F)cc(C(F)(F)F)c3)[C@@H]2c2ccc(CO)cc2)cc1 the relative growth was inactive: 0.925. For C=CCOC(=O)[C@@H]1[C@H]2C(=O)O[C@H](c3ccccc3)[C@H](c3ccccc3)N2[C@H](c2ccc(OCCOC(=O)[C@H]3C[C@H]4C(=O)NCC(=O)N4[C@H]3c3cccc(OCCO)c3)cc2)[C@@]12C(=O)Nc1ccc(I)cc12, the relative growth was inactive: 1.02. In the case of CO[C@H]1CN(C)C(=O)c2ccc(NC(=O)Nc3cccc(F)c3)cc2OC[C@@H](C)N(C(=O)Nc2c(C)noc2C)C[C@H]1C, the relative growth is reported as inactive: 0.953. CNC(=O)Cn1c(=O)c2c(OC)ccnc2n(C)c1=O was tested, and the relative growth was inactive: 0.99. With C[C@@H]1CCCCO[C@@H](CN(C)C(=O)Nc2cccc3ccccc23)[C@H](C)CN([C@@H](C)CO)C(=O)c2cc(NC(=O)Nc3ccc(F)cc3)ccc2O1 the relative growth was inactive: 1.09. With C[C@H](CO)N1C[C@H](C)[C@@H](CN(C)Cc2ccc(Oc3ccccc3)cc2)Oc2ccc(NC(=O)Nc3ccc4c(c3)OCO4)cc2C1=O the relative growth was inactive: 1.02. For C[C@H](CO)N1C[C@H](C)[C@H](CN(C)S(=O)(=O)c2cn(C)cn2)OCc2cnnn2CCCC1=O, the relative growth was inactive: 1.01. For COc1ccc(S(=O)(=O)Nc2cccc3c2O[C@@H](CN(C)Cc2ccc(Oc4ccccc4)cc2)[C@@H](C)CN([C@@H](C)CO)C3=O)cc1, the relative growth was inactive: 1.02. In the case of C[C@@H]1CCCCO[C@@H](CN(C)Cc2ccccc2)[C@@H](C)CN([C@@H](C)CO)C(=O)c2cc(NS(=O)(=O)c3ccc(F)cc3)ccc2O1, the relative growth is reported as inactive: 0.984. In the case of O=C(C[C@@H]1CC[C@@H]2[C@H](COC[C@@H](O)CN2C(=O)c2ccccc2)O1)N1CCOCC1, the relative growth is reported as inactive: 0.976. With Cc1ccc(S(=O)(=O)Nc2ccc3c(c2)C(=O)N([C@@H](C)CO)C[C@@H](C)[C@H](CN(C)C(=O)Nc2ccc(C(F)(F)F)cc2)O3)cc1 the relative growth was inactive: 0.9. In the case of O=C(C[C@H]1C[C@@H]2c3cc(NC(=O)c4ccc5c(c4)OCO5)ccc3O[C@@H]2[C@H](CO)O1)NCCN1CCCCC1, the relative growth is reported as inactive: 0.975. For CN1C(C(=O)Nc2ccccn2)=C(O)c2ccccc2S1(=O)=O, the relative growth was inactive: 0.938. With CC(=O)OCC(=O)C1(O)CCC2C3CCC4CC(O)CCC4(C)C3C(=O)CC21C (stereo not drawn) the relative growth was inactive: 1.11. For O=C(C[C@@H]1CC[C@@H](NS(=O)(=O)c2ccc(F)cc2)[C@@H](CO)O1)N1CCC(Cc2ccccc2)CC1, the relative growth was inactive: 0.987. For COCC(=O)N1C[C@@H](C)[C@H](OC)CN(C)C(=O)c2ccc(NC(=O)Nc3ccccc3)cc2OC[C@H]1C, the relative growth was inactive: 1.01. With C[C@H]1CN([C@@H](C)CO)C(=O)c2cc(NC(=O)Cn3cnnn3)ccc2O[C@@H]1CN(C)Cc1ccc(C(=O)O)cc1 the relative growth was inactive: 0.998. In the case of C[C@@H]1CN([C@H](C)CO)C(=O)c2c(c3ccccc3n2C)-c2ccccc2CO[C@H]1CN(C)C(=O)Nc1ccccc1, the relative growth is reported as inactive: 0.96. O=C(C[C@@H]1C[C@H]2c3cc(NC(=O)Nc4ccccc4)ccc3O[C@H]2[C@H](CO)O1)NCCN1CCCCC1 was tested, and the relative growth was inactive: 1.01.
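Also: static incubation at 37 °C against the wild-type strain, values averaged over two biological replicates.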
